# Inconclusive results, whose numbers are uncertain, are shown with a selection of clear calls. Entries that show only a call come without a potency. For some of these results: Potencies of inconclusive entries are doubtful fits and often do not repeat. Calls of active or inactive are those of the source. Unless noted, calls come from the whole dose curve; as a rule, active = well fitted curve in the direction sought with a large enough effect in the repeat runs; inconclusive = weak or mixed curves; inactive = no such curve, though single readings can be large; an effect the other way counts as inactive or inconclusive.
# Assays:
# [1] = qHTS assay for small molecule agonists of the p53 signaling pathway (AID 651631; calls by dose curve; note: nearly all actives have a fitted effect of over 15% in size; note: potency is the fitted concentration of half-maximal effect); conditions: HCT-116 p53RE-bla reporter, beta-lactamase FRET ratio, 16 h; activation: at 73.3 µM (top of the series) unless noted
# Outline: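 Testing took place in human colorectal HCT-116 cells with stable p53RE-driven beta-lactamase. After 16 h of compound exposure at 37 °C, a FRET substrate was added and fluorescence recorded 2 h later.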
# [2] = qHTS assay for small molecule disruptors of the mitochondrial membrane potential (AID 720635); conditions: HepG2 mitochondrial membrane potential, Mito-MPS dye ratio; ratio activity, negative = MMP loss: at 83.2 µM (top of the series) unless noted
# Outline: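 HepG2 cells exposed to compound 1 hr at 37C, then Mito-MPS dye 30 min. Ratio read of aggregate (540/590 nm) versus monomer (490/535 nm) fluorescence.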
# [3] = qHTS assay for identifying genotoxic compounds that show differential cytotoxicity against isogenic chicken DT40 cell lines with known DNA damage response pathways - wild type cell line (AID 743012); conditions: DT40 wild type chicken cells viability, CellTiter-Glo, 40 h; activity change, negative = cytotoxicity: at 68.4 µM (top of the series) unless noted; note: nearly all actives have a fitted effect of over 60% in size
# Outline: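 Viability by ATP luminescence (CellTiter-Glo, 30 min RT) after 40 h compound treatment at 37 C/5% CO2, using 300 parental DNA repair-proficient DT40 cells per well.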
# [4] = qHTS assay for identifying genotoxic compounds that show differential cytotoxicity against isogenic chicken DT40 cell lines with known DNA damage response pathways - Rev3 mutant cell line (AID 743014); conditions: chicken DT40 Rev3-/- viability, CellTiter-Glo, 40 h; activity, negative = cytotoxicity: at 68.4 µM (top of the series) unless noted; note: potency is the fitted concentration of half-maximal effect; nearly all actives have a fitted effect of over 55% in size
# [5] = qHTS assay for small molecule agonists of the antioxidant response element (ARE) signaling pathway (AID 743202; active = well fitted activation curve with a large enough effect in the signal ratio in the repeat runs, not every such curve was filed as active; inconclusive = weak or mixed curves, or effect the other way; inactive = no such curve, though single readings can be large or run the other way; the % refers to the signal ratio); conditions: HepG2 ARE-bla reporter, beta-lactamase FRET, 16 h; activation: at 73.3 µM (top of the series) unless noted
# Outline: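 HepG2 ARE-bla cells; 16 h treatment at 37 C; FRET-based beta-lactamase fluorescence read after 2 h substrate incubation at room temperature.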
# [6] = qHTS assay to identify small molecule agonists or antagonists of the thyroid stimulating hormone receptor (TSHR) signaling pathway - wild type cell line counter screen (AID 1259384; calls by dose curve); conditions: HEK293 wild type, cAMP HTRF counter-screen; cAMP activity change: at 92.4 µM (top of the series), hits give high values unless noted
# Outline: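 Wild-type Hek293 cells, 800/well, 18 h at 37C, then compound with Ro20-1724 for 30 min RT. cAMP by HTRF (cAMP-d2/anti-cAMP cryptate), 1 h RT, fluorescence read. 15 concentrations, triplicates.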
# [7] = target: Cytochrome P450 2D6 (Homo sapiens) (UniProt P10635); assay: Cytochrome P450 Family 2 Subfamily D Member 6 (CYP2D6) small molecule antagonists: luciferase reporter qHTS assay (AID 1671196); note: nearly all actives have a fitted effect of over 50% in size
# UniProt P10635, sequence (P10635 whole entry, looked up): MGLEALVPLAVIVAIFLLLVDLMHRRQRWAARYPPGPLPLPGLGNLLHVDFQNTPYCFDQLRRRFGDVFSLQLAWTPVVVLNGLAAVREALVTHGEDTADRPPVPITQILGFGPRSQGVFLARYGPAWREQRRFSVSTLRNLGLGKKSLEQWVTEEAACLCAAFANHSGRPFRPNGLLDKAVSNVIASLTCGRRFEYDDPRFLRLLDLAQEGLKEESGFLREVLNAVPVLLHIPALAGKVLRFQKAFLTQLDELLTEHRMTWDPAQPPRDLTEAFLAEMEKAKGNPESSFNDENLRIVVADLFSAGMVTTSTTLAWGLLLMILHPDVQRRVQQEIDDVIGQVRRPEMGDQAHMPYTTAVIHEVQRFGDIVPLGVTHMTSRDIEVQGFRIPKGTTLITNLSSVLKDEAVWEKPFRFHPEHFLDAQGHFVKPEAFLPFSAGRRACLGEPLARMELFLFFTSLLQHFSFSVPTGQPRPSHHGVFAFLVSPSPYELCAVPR
# Outline: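 CYP2D6 activity was followed as luminescence from its luciferin product after a 1 h NADPH-driven reaction at room temperature. Enzyme-substrate mix and compound were pre-incubated for 10 min, and the signal was read 20 min after adding detection reagent.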
# [8] = target: Cytochrome P450 1A2 (Homo sapiens) (UniProt P05177); assay: Cytochrome P450 Family 1 Subfamily A Member 2 (CYP1A2) small molecule antagonists: luciferase reporter qHTS assay (AID 1671199); note: nearly all actives have a fitted effect of over 50% in size; note: potency is the fitted concentration of half-maximal effect
# UniProt P05177, sequence (P05177 whole entry, looked up): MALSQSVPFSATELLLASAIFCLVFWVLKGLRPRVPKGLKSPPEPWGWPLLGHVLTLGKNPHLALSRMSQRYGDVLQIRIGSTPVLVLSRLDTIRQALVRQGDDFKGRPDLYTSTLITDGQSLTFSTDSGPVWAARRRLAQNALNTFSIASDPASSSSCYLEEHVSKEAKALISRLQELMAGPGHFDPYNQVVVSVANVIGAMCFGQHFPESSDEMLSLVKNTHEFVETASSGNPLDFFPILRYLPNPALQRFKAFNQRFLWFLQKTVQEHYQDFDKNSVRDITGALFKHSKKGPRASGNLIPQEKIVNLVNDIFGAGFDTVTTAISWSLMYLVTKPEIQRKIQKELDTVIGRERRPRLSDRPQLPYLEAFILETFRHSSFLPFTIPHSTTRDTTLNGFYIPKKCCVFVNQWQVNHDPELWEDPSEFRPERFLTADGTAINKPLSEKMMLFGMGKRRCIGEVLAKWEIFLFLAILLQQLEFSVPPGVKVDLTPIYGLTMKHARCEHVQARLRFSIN
# Outline: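 Luminescence from luciferin formed by CYP1A2 from a proluciferin substrate, read 20 min after detection reagent. Compound was pre-incubated 10 min with enzyme-substrate, and reaction started with NADPH regeneration solution for 1 h at room temperature; furafylline control.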
# [9] = qHTS assay to identify small molecule antagonists of the progesterone receptor (PR) signaling pathway - cell viability counter screen (AID 1346798); note: potency is the fitted concentration of half-maximal effect; nearly all actives have a fitted effect of over 50% in size
# Outline: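 CellTiter-Glo luminescence; PR-UAS-bla HEK293T, 3,000 cells/well; compound + R5020, 16 hr, 37C/5% CO2; 30 min RT before read.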
# [10] = qHTS assay to identify small molecule antagonists of the peroxisome proliferator-activated receptor delta (PPARd) signaling pathway - cell viability counter screen (AID 743213); conditions: PPARd-bla HEK293H viability, CellTiter-Glo luminescence, 17 h; viability change, negative = cytotoxic: at 62 µM (top of the series) unless noted; note: potency is the fitted concentration of half-maximal effect; nearly all actives have a fitted effect of over 50% in size
# Outline: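 HEK293H cells with the PPARd UAS-bla reporter, co-treated 17 h at 37 C with compounds and L165041 (300 nM final), were lysed with CellTiter-Glo. Luminescence indicated viable cell content.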
# [11] = target: Vitamin D3 receptor (Homo sapiens) (UniProt P11473); assay: qHTS assay to identify small molecule agonists of the vitamin D receptor (VDR) signaling pathway (AID 743222; calls by dose curve); conditions: HEK293T VDR-UAS-bla, beta-lactamase FRET ratio, 16 h; activation: at 63.5 µM (top of the series) unless noted
# UniProt P11473, sequence (P11473 whole entry, looked up): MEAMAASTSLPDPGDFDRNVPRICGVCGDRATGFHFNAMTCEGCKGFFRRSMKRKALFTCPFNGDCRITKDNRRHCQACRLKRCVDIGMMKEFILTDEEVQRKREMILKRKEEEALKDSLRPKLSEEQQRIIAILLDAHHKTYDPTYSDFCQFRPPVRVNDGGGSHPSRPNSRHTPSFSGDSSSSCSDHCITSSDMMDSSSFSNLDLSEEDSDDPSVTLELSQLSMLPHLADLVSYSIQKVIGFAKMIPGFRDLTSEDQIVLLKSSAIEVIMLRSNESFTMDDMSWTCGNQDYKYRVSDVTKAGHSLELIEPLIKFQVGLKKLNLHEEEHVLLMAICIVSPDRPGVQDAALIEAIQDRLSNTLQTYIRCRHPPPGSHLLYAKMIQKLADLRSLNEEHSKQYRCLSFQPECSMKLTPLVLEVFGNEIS
# Outline: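 Agonist mode, beta-lactamase reporter: fluorescence from LiveBLAzer B/G FRET substrate (2 h, room temperature) read after 16 h compound treatment at 37 C of VDR-bla cells, which were pre-incubated 4 h after seeding.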
# [12] = target: Vitamin D3 receptor (Homo sapiens) (UniProt P11473); assay: qHTS assay to identify small molecule antagonists of the vitamin D receptor (VDR) signaling pathway (AID 743223; active = well fitted inhibition curve with a large enough effect in the signal ratio in the repeat runs, not every such curve was filed as active; inconclusive = weak or mixed curves, or effect the other way; inactive = no such curve, though single readings can be large or run the other way; the % refers to the signal ratio); conditions: VDR-UAS-bla HEK293T, beta-lactamase FRET ratio, 16 h; activity change, negative = inhibition: at 61 µM (top of the series) unless noted
# Outline: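 Quantitative HTS in VDR-bla reporter cells stimulated with 1alpha,25-dihydroxyvitamin D3, 3 nM final. Compound exposure 16 h, 37C, 5% CO2. Read-out: beta-lactamase FRET substrate fluorescence, 2 h RT.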
# [13] = qHTS assay to identify small molecule agonists of the progesterone receptor (PR) signaling pathway - cell viability counter screen (AID 1346799; calls by dose curve; note: potency is the fitted concentration of half-maximal effect; nearly all actives have a fitted effect of over 45% in size)
# Outline: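 In parallel with the beta-lactamase readout, cytotoxicity toward PR-UAS-bla HEK293T cells was measured by CellTiter-Glo luminescence following 16 hr compound incubation in 2% charcoal-stripped FBS medium.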
# [14] = target: Cytochrome P450 2C19 (Homo sapiens) (UniProt P33261); assay: Cytochrome P450 Family 2 Subfamily C Member 19 (CYP2C19) small molecule antagonists: luciferase reporter qHTS assay (AID 1671197); note: nearly all actives have a fitted effect of over 65% in size
# UniProt P33261, sequence (P33261 whole entry, looked up): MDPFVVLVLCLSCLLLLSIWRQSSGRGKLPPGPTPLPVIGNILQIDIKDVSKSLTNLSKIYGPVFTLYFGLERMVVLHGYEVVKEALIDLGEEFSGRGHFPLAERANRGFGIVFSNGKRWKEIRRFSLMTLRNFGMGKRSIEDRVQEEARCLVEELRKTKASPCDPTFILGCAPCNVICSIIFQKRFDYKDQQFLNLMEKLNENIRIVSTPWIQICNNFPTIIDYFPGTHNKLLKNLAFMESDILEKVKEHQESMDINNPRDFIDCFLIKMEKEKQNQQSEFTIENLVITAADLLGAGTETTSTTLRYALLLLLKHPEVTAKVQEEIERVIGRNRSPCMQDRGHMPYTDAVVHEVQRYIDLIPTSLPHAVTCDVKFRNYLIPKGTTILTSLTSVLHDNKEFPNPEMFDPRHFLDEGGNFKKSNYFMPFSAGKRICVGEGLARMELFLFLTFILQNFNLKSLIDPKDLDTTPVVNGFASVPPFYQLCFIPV
# Outline: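 Relative luminescence units recorded 20 min after the detection reagent stopped a 1 h, 37C CYP2C19 reaction on proluciferin substrate, which was started by NADPH regeneration following 10 min room-temperature compound preincubation; ketoconazole positive control.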
# [15] = qHTS assay to identify small molecule antagonists of the androgen receptor (AR) signaling pathway - cell viability counter screen (AID 743033; note: potency is the fitted concentration of half-maximal effect; nearly all actives have a fitted effect of over 45% in size); conditions: AR-bla HEK293 viability, CellTiter-Glo luminescence, 16 h; activity change, negative = cytotoxicity: at 58.5 µM (top of the series) unless noted
# [16] = qHTS assay to identify small molecule antagonists of the thyroid receptor (TR) signaling pathway - cell viability counter screen (AID 743064); conditions: GH3.TRE-Luc viability, CellTiter-Fluor, 24 h; activity change, negative = cytotoxic: at 70.3 µM (top of the series) unless noted
# Outline: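 Viability of T3-stimulated (1 nM final) GH3.TRE-Luc cells is measured by CellTiter-Fluor fluorescence after 23.5 h compound exposure at 37 °C plus 30 min reagent incubation.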
# [17] = qHTS assay to identify small molecule antagonists of the estrogen receptor alpha (ER-alpha) signaling pathway - cell viability counter screen (AID 743074; calls by dose curve;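 note: HEK293 cells carrying ER-alpha-UAS-bla reporter stimulated with 17beta-estradiol; nearly all actives have a fitted effect of over 45% in size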)
# [18] = qHTS assay to identify small molecule antagonists of the peroxisome proliferator-activated receptor gamma (PPARg) signaling pathway - cell viability counter screen (AID 743194); conditions: PPARg-bla HEK293H viability, CellTiter-Glo luminescence, 17 h, co-treated with 50 nM rosiglitazone; activity change, negative = cytotoxicity: at 62.6 µM (top of the series) unless noted; note: potency is the fitted concentration of half-maximal effect; nearly all actives have a fitted effect of over 55% in size
# Outline: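 Cytotoxicity counter screen in PPARg-bla HEK293H cells, same wells as reporter assay. Compounds plus 50 nM rosiglitazone (final) for 17 h at 37 C, then viability read by CellTiter-Glo luminescence.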
# [19] = qHTS assay for small molecule activators of the heat shock response signaling pathway (AID 743210; active = well fitted activation curve with a large enough effect in the signal ratio in the repeat runs, with a control signal flat, not every such curve was filed as active; inconclusive = weak or mixed curves; the % refers to the signal ratio;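 note: HeLa cells with beta-lactamase reporter driven by heat shock elements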); conditions: HeLa HSE-bla reporter, beta-lactamase ratio, 5 h; activation: at 62.6 µM (top of the series) unless noted
# Outline: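 Following overnight attachment, HSE-bla HeLa cells received test compounds for 5 h at 37 C; beta-lactamase activity was then detected via FRET substrate fluorescence.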
# [20] = target: Peroxisome proliferator-activated receptor delta (Homo sapiens) (UniProt Q03181); assay: qHTS assay to identify small molecule antagonists of the peroxisome proliferator-activated receptor delta (PPARd) signaling pathway (AID 743215; active = well fitted inhibition curve with a large enough effect in the signal ratio in the repeat runs, not every such curve was filed as active; inconclusive = weak or mixed curves, or effect the other way; inactive = no such curve, though single readings can be large or run the other way; the % refers to the signal ratio;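 note: cells stimulated with agonist L165041 at 300 nM final during compound exposure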); conditions: HEK293H PPARd-UAS-bla, beta-lactamase FRET ratio, antagonist, 17 h; ratio activity, negative = inhibition: at 62 µM (top of the series) unless noted
# UniProt Q03181, sequence (Q03181 whole entry, looked up): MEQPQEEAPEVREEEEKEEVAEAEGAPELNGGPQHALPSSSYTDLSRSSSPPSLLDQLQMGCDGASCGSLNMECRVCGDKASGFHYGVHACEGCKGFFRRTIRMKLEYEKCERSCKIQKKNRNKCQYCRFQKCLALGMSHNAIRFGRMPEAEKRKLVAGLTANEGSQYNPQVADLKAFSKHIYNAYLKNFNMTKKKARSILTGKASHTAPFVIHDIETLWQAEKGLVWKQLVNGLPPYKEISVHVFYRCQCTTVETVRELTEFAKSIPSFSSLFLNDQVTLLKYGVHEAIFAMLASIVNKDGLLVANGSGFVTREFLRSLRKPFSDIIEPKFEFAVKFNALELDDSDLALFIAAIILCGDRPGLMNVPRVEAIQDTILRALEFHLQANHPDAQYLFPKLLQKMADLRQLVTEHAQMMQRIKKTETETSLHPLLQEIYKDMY
# Outline: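 Agonist L165041 (300 nM final) added with compound to PPARd-bla HEK293H UAS-bla reporter cells; 17 h incubation at 37 C. Read-out: LiveBLAzer FRET substrate, 2 h at room temperature, fluorescence intensity.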
# [21] = qHTS assay to identify small molecule agonists of the farnesoid-X-receptor (FXR) signaling pathway - cell viability counter screen (AID 743218); conditions: FXR-bla HEK293T viability, CellTiter-Glo luminescence, 16 h; viability change, negative = cytotoxic: at 62.6 µM (top of the series) unless noted; note: nearly all actives have a fitted effect of over 45% in size
# Outline: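 Viability counter screen in the same wells: CellTiter-Glo luminescence, 30 min room-temperature incubation, measured after the beta-lactamase read. Cells were GeneBLAzer FXR-UAS-bla HEK 293T, compound-treated 16 h at 37C.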
# [22] = qHTS assay to identify small molecule agonists of the TGF-beta/Smad signaling pathway - cell viability counter screen (AID 1346829)
# Outline: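 Tox21 qHTS format: SBE-bla HEK 293T cells treated with DMSO-dissolved compounds for 5 hr; CellTiter-Glo luminescence after 30 min at room temperature.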
# Tags give direction and shape of the fitted curve or compound fluorescence and quenching.
structure (smiles),measurement,setting,value
O=C(O)c1ccc[n+]([O-])c1,Potency,[1],inactive
same,Potency,[2],inactive
same,Potency,[3],inactive
same,Potency,[4],"inconclusive: 23.7 µM [cytotoxic, partial curve]"
same,Potency,[5],inactive
same,Potency,[6],inactive
same,Potency,[7],inactive
same,Potency,[8],inactive
CC(=O)N(C)C,Potency,[9],"inconclusive: 30.6 µM [rising, single point]"
COc1ccccc1N1CCN(CC(O)COc2cc(OC)c(OC)c(OC)c2)CC1 (stereo not given),Potency,[10],"inconclusive: 33.5 µM [rising, single point]"
same,activation,[11],inconclusive: 15.5%
same,"activity change, negative = inhibition",[12],inconclusive: 3.63%
same,Potency,[13],"inconclusive: 16.8 µM [rising, partial curve, poor fit]"
same,Potency,[14],inactive
same,Potency,[8],"inconclusive: 27.5 µM [inhibitor, partial curve]"
Cc1c(NC(=O)c2cccnc2)c(=O)n(-c2ccccc2)n1C,Potency,[1],"inconclusive: 0.507 µM [activator, single point]"
same,Potency,[2],inactive
same,Potency,[15],"inconclusive: 0.162 µM [cytotoxic, full curve, poor fit]"
same,Potency,[16],"inconclusive: 4.52 µM [rising, single point]"
same,Potency,[17],inactive
same,Potency,[18],"inconclusive: 0.668 µM [cytotoxic, full curve, poor fit]"
same,Potency,[19],inactive
same,Potency,[20],inactive
same,"viability change, negative = cytotoxic",[21],inconclusive: 14%
same,Potency,[22],inactive
